# From the RNAGym collection of RNA variant scans (doi:10.1093/nar/gkz1192)
# The source gives no read counts; variants with many changes may rest on few reads.
# B1: CPEB3 Ribozyme (parent)
# chain: UAACAGGGGGCCACAGCAGAAGCGUUCACGUCGCAGCCCCUGUCAGAUUCUGGUGAAUCUGCGAAUUCUGCUGUAUAUCUC
# Variants of: B1
# Assay: self-cleavage, relative activity (ratio to wild type); higher = more cleavage; in vitro, sequencing
# In short: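 Libraries of CPEB3 self-cleaving ribozyme mutants came from rounds of error-prone PCR and carried barcodes, which DNA sequencing matched to variants. In vitro transcription used T7 RNA polymerase at 37°C for 5 hours, with a further 15 min in DNase I before EDTA stopped the reaction; the ribozymes cleaved during both steps. The RNA was reverse transcribed with template switching and sequenced on Illumina. Relative activity is the cleaved/total read fraction of a variant divided by that of the unmutated ribozyme, averaged over three batches with at least 5 reads.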
row,Variant,self-cleavage
1,C11A A18U U72C A77U,0.09
2,C11A A20C U43A A64G,0.05
3,C11A A20G A21G G36U U67C U72C,0.26
4,C11A A20U A75G,0.35
5,C11A A28U G55U,0.37
6,C11A A35G A45G U76A,0.27
7,C11A A35U A65G A77G,0.12
8,C11A C23G C44A U54G A64G,0.16
9,C11A C23G U25C U54C U69A,0
10,C11A C37U U43A A65G U80A,0.07
11,C11A G24A U43C A56U,0.06
12,C11A U25A U31C U54A,0.14
13,C11A U25C C29A,0.27
14,C11A U25C G33A A65G,0.04
15,C11A U26A U78C,0.05
16,C11A U26C U41C,0.42
17,C11A U43A A64U,0.08
18,C11A U43C U51A U60C U74C,0.27
19,C11A U43C U54C C79A C81A,0.09
20,C11A U43G U67C U72A,0.07
21,C11A U48A G55A U60C U74C,0.15
22,C11A U58C A77U,0.33
23,C11A U69C U72C,0.12
24,C11A U69C U72C U76C U80A,0.08

row,Variant,self-cleavage
1,C11G A13C U25C U54G,0.07
2,C11G A13G A47G A57G,0.48
3,C11G A13G U72C,0.09
4,C11G A13U U31C G42U U66C U69A,0.05
5,C11G A15G A28G U51G G61A,0.02
6,C11G A15G C39G A45G A47G,0.03
7,C11G A15G G19A U41C A45U,0.04
8,C11G A15U A21G A45U,0.14
9,C11G A15U G16A G30A G36A U41C U60A,0.06
10,C11G A15U U54A A57G U78A U80C,0.42
11,C11G A18G A56U A64U,0.16
12,C11G A18G C32A A45G U49C U80C,0.24
13,C11G A18G C37A A45C A56G A65G,0.03
14,C11G A18U A35U U74C,0.51
15,C11G A18U G33U,0.05
16,C11G A18U U31C U58A,0.06
17,C11G A18U U41A U48C U49C,0.09
18,C11G A18U U54C,0.13
19,C11G A20G A64U U72A U78C U80C,0.04
20,C11G A20G U26C,0.25
21,C11G A20G U31C C44G U49C G53A A77G,0.21
22,C11G A20G U41C A57U U58C U66C U78C,0.05
23,C11G A20U A28G,0.08
24,C11G A21G A28U C32U U66C U69C U74A,0.03

row,Variant,self-cleavage
1,C11G A21G A45C,0.34
2,C11G A21G U25A A57G U60A U67C,0.28
3,C11G A21G U41A U48C A57G,0.05
4,C11G A21G U80A,0.17
5,C11G A21G U80C,0.2
6,C11G A28G A64G,0.07
7,C11G A28G G30A A45U A56U,0.06
8,C11G A28G U58A U69C,0.05
9,C11G A35G A75G,0.45
10,C11G A35G U60C U66A A77G,0.06
11,C11G A35G U78C C79U,0.36
12,C11G A35U U66A,0.07
13,C11G A45C U60C,0.05
14,C11G A65G U74A U78C,0.13
15,C11G A77G C79G,0.46
16,C11G C12G U80C,0.48
17,C11G C14A A28G A47G G61A,0.18
18,C11G C17A A21G U25A U31A U41A A77U,0.01
19,C11G C17U A18U,0.08
20,C11G C23U U41C C79U,0.08
21,C11G C23U U58C,0.06
22,C11G C32A U41A U66C U78C,0.19
23,C11G C32G U41C C44U U51A U60A,0.04
24,C11G C37U A64U U67C U72A,0.06

row,Variant,self-cleavage
1,C11G C39G U41A U54A U72C,0.08
2,C11G C39G U60A A64U U67A U69A,0.05
3,C11G C39U C44A U66A U67C,0.04
4,C11G C40A A45U U60C G63C,0.03
5,C11G G19A U25G U78A,0.19
6,C11G G24C U66C G73A,0.35
7,C11G G33A U48A U78C,0.31
8,C11G G63A U78C,0.16
9,C11G U25C A45G G70U U74A,0.34
10,C11G U25C U26G A56C U80C,0.29
11,C11G U25C U54C U74A,0.08
12,C11G U26A U31A G55U A64G U67A,0.04
13,C11G U26A U31C C40A U43C U58C U66C,0.04
14,C11G U26C A28G C34U A75U,0.05
15,C11G U26C A35G G63U A75G,0.37
16,C11G U26C A47G U72A,0.33
17,C11G U26C U48C,0.09
18,C11G U26C U51A A65U U76A,0.06
19,C11G U31G U48A U74G,0.41
20,C11G U41A A75U,0.08
21,C11G U41A U74C U80C,0.5
22,C11G U41C U49C A64G,0.08
23,C11G U41C U54A,0.8
24,C11G U43A A47G C59A,0.15

row,Variant,self-cleavage
1,C11G U43A U54C U67C,0.06
2,C11G U43C U54G,0.23
3,C11G U48C A64G U67C,0.08
4,C11G U49C A64G,0.07
5,C11G U60A U67A,0.18
6,C11U A13C G16U A21G C32U U51C U78C,0.04
7,C11U A13G A28U U41C U49C A64G,0.05
8,C11U A13G G19C U25C U60A U72C,0.03
9,C11U A13G U41C A56U A57U,0.14
10,C11U A13U U25G G30A U74C U78A,0.07
11,C11U A13U U31A U41C,0.26
12,C11U A15G A20G A28G U72C,0.15
13,C11U A15G U48C A57G U66C U78C,0.05
14,C11U A15G U60A,0.45
15,C11U A18G A56G U72C,0.25
16,C11U A18G U26C A28G U51C,0.15
17,C11U A18G U31A U60C U76A A77G,0.02
18,C11U A18U A35U,0.16
19,C11U A18U A35U A45U C62A,0.19
20,C11U A18U U49C U72C,0.13
21,C11U A20G U31A U48C U76G U78C,0.05
22,C11U A20U A75G U76C,0.06
23,C11U A20U U25C U72C A77U,0.05
24,C11U A20U U74A,0.37

row,Variant,self-cleavage
1,C11U A20U U80C,0.28
2,C11U A21U G63A,0.14
3,C11U A21U U49A C50U A56U U58G A64G,0.03
4,C11U A28C A57G,0.07
5,C11U A28C C40U C59G,0.06
6,C11U A28G A45G C79A,0.22
7,C11U A28U A65G U69A,0.13
8,C11U A28U U49C A57G U66A,0.06
9,C11U A28U U54A U69A U72C,0.09
10,C11U A35G C39U U43C,0.29
11,C11U A35G C40U U54A U78A,1.24
12,C11U A35G G53A U58C U66C U74C,0.46
13,C11U A35G U43C U54C U60G,0.2
14,C11U A45C U66C A77G,0.06
15,C11U A47C G52U U72A,0.1
16,C11U A47G A65G,0.49
17,C11U C12A C23U U26C G30U U69C U76C,0.08
18,C11U C17A G19U U25C U41A C62G,0.05
19,C11U C34G U49C A56G U72C,0.11
20,C11U C34U U41C U72C U74C,0.3
21,C11U C37U A47U U69C,0.03
22,C11U C39G A47U U72A,0.04
23,C11U C40U U48C C50U U51C U54A A56U,0.04
24,C11U C44U U72C,0.43

row,Variant,self-cleavage
1,C11U G19A U54C U72A U74C,0.06
2,C11U G30A U54C U69C,0.05
3,C11U G33A C38U C62G,0.74
4,C11U G33A U80C,0.44
5,C11U U25A C39G A64G U67A U74G,0.1
6,C11U U25A G63A,0.18
7,C11U U25A U31A U72C,0.15
8,C11U U25C A35U,0.18
9,C11U U25C U26C G55A U80G,0.09
10,C11U U25C U26C U49C,0.29
11,C11U U25C U41C,0.22
12,C11U U26C A28G U41C U43C U54A U80G,0.11
13,C11U U26C A56G A57U U74C,0.16
14,C11U U26C G53A,0.12
15,C11U U26C U41G U80C,0.05
16,C11U U26C U74C,0.43
17,C11U U31C U41A U43C A45U,0.14
18,C11U U41A A47G A56U A57G,0.08
19,C11U U41C U43C G63A U69C U72C,0.02
20,C11U U48C U58C,0.14
21,C11U U48C U74C A77G,0.21
22,C11U U49C A64U U69G U78A,0.03
23,C11U U49C U67G U69G,0.14
